These results are taken from PMC5892938.

The list shows a part of the results. At the low end of the ranking the order means little.

The target in the test is GST-SBP-SLBP (stem-loop binding protein) (UniProt Q14493). In words: targeted RNA Bind-n-Seq.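 Also: DESeq read counts versus GST-SBP nonspecific binding control pulldown.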 The following applies: RBNS binding buffer: 25 mM Tris pH 7.5, 150 mM KCl, 3 mM MgCl2, 0.1% Tween, 0.5 mg/mL BSA, 1 mM DTT; 27 nM protein, 750 pM RNA pool; temperature not stated; high values mean tight binding.
For “GGUCACGUCUCAAUCAACUCUUUCGAGGGGGGGAAAACCCCUUUACCCUCUUUCUCAACAGCUCGCAGUCAAG”, the binding signal (log2 fold change) was -0.0974.
Next, “GGUCACGUCUCAAUCAACUCAUUCUCCAGGGAAACCCCUGGCAAUCUCAACAGCUCGCAGUCAAG”: 0.0751; “GGUCACGUCUCAAUCAACUCAGUCUCAGGAGUUUUCUCCUGCAUAGUCAACAGCUCGCAGUCAAG”: -0.097; “GGUCACGUCUCAAUCAACUCAUUCGAGGGGGGGAAAACCCCUUUACCCUCUCCAUCAACAGCUCGCAGUCAAG”: -0.345.
Next, “GGUCACGUCUCAAUCAACUCAAUUUCAGGAGUUUCCUCCUGCAUACUCAACAGCUCGCAGUCAAG”: -0.0222.
Next, “GGUCACGUCUCAAUCAACUCUUUCCCAGGAGUUUUCUCCUGUAAAUUCAACAGCUCGCAGUCAAG”: -0.00663; “GGUCACGUCUCAAUCAACUCUAUUCCAGGAGUUUCCUCCUGCUAUUUCAACAGCUCGCAGUCAAG”: -0.0335; “GGUCACGUCUCAAUCAACUCUAUCCCCAGGGAAAGCCCUGGUUUAUUCAACAGCUCGCAGUCAAG”: -0.203.
With “GGUCACGUCUCAAUCAACUCAAUUUCAGGAGUUUACUCCUGCAAACUCAACAGCUCGCAGUCAAG”, the binding signal (log2 fold change) is -0.0789.
“GGUCACGUCUCAAUCAACUCAUCAGAGGGGGGGAAAACCCCUUUGCCCUCCAUAUCAACAGCUCGCAGUCAAG”: the binding signal (log2 fold change) is -0.29.
Next, “GGUCACGUCUCAAUCAACUCUACUUCAGGAGUUUCCUCCUGCUAACUCAACAGCUCGCAGUCAAG”: -0.00461; “GGUCACGUCUCAAUCAACUCAAUCCCCAGGGAAAUCCCUGGCAAACUCAACAGCUCGCAGUCAAG”: 0.0306; “GGUCACGUCUCAAUCAACUCAUUUCCAGGAGUUUGCUCCUGUAUACUCAACAGCUCGCAGUCAAG”: -0.178.
Next, “GGUCACGUCUCAAUCAACUCAUCUCCCAGGGAAACCCCUGGUUUUUUCAACAGCUCGCAGUCAAG”: -0.0747; “GGUCACGUCUCAAUCAACUCUUCUUCAGGAGUUUCCUCCUGUAUACUCAACAGCUCGCAGUCAAG”: -0.0691.
Next, “GGUCACGUCUCAAUCAACUCAUCUCCAGGAGUUUUCUCCUGUUAUCUCAACAGCUCGCAGUCAAG”: 0.0608; “GGUCACGUCUCAAUCAACUCAUACGAGGGGGGGAAAACCCCUUUACCCUCAACUUCAACAGCUCGCAGUCAAG”: -0.111.
In the case of “GGUCACGUCUCAAUCAACUCUAUCUCAGGAGUUUUCUCCUGCUAAUUCAACAGCUCGCAGUCAAG”, the binding signal (log2 fold change) was found to be 0.0769.
Next, “GGUCACGUCUCAAUCAACUCUUUCCCAGGAGUUUUCUCCUGCUAAUUCAACAGCUCGCAGUCAAG”: -0.0512.
Next, “GGUCACGUCUCAAUCAACUCAAUCCCCAGGGAAAUCCCUGGCUAUCUCAACAGCUCGCAGUCAAG”: 0.242.
Next, “GGUCACGUCUCAAUCAACUCUAUUCCCAGGGAAAACCCUGGUAUAUUCAACAGCUCGCAGUCAAG”: -0.105; “GGUCACGUCUCAAUCAACUCAAGUCCAGGAGUUUCCUCCUGCAAUGUCAACAGCUCGCAGUCAAG”: 0.172; “GGUCACGUCUCAAUCAACUCAUCGCCAGGAGUUUCCUCCUGUUAAUUCAACAGCUCGCAGUCAAG”: 0.00848.
Take “GGUCACGUCUCAAUCAACUCAUACGAGGGGGGGAAAACCCCUUUACCCUCCAAAUCAACAGCUCGCAGUCAAG”: the binding signal (log2 fold change) was 0.209.
Next, “GGUCACGUCUCAAUCAACUCCCUAGAGGGGGGGAAAACCCCUUUACCCUCGUUAUCAACAGCUCGCAGUCAAG”: 0.277; “GGUCACGUCUCAAUCAACUCUUUCUCAGGAGUUUCCUCCUGUUUUUUCAACAGCUCGCAGUCAAG”: -0.0698; “GGUCACGUCUCAAUCAACUCCAUAGAGGGGGGGAAAACCCCUUUGCCCUCCAUAUCAACAGCUCGCAGUCAAG”: 0.0149.
Next, “GGUCACGUCUCAAUCAACUCAAUCCCCAGGGAAACCCCUGGCUAUCUCAACAGCUCGCAGUCAAG”: -0.232; “GGUCACGUCUCAAUCAACUCAUCUCCAGGAGUUUACUCCUGCUAUUUCAACAGCUCGCAGUCAAG”: 0.208; “GGUCACGUCUCAAUCAACUCUAACGAGGGGGGGAAAACCCCUUUACCCUCAAUCUCAACAGCUCGCAGUCAAG”: -0.0951.
Take “GGUCACGUCUCAAUCAACUCAUUCUCAGGAGUUUACUCCUGUUAUUUCAACAGCUCGCAGUCAAG”: the binding signal (log2 fold change) came to 0.117.
Take “GGUCACGUCUCAAUCAACUCACUAGAGGGGGGGAAAACCCCUUUGCCCUCAUUUUCAACAGCUCGCAGUCAAG”: the binding signal (log2 fold change) was -0.499.
Next, “GGUCACGUCUCAAUCAACUCAUUCUCCAGGGAAAUCCCUGGCAAUUUCAACAGCUCGCAGUCAAG”: 0.138.
For the sequence “GGUCACGUCUCAAUCAACUCACUCGAGGGGGGGAAAACCCCUUUACCCUCAAUCUCAACAGCUCGCAGUCAAG”, the binding signal (log2 fold change) was -0.0651.
Next, “GGUCACGUCUCAAUCAACUCUAUCCCCAGGGAAAUCCCUGGUAUAUUCAACAGCUCGCAGUCAAG”: 0.333.
Next, “GGUCACGUCUCAAUCAACUCUAUCCCCAGGGAAAUCCCUGGUAAUCUCAACAGCUCGCAGUCAAG”: 0.0242; “GGUCACGUCUCAAUCAACUCAUCUUCAGGAGUUUGCUCCUGCUAAUUCAACAGCUCGCAGUCAAG”: 0.0374.
“GGUCACGUCUCAAUCAACUCUUCUCCCAGGGAAAACCCUGGCUAUGUCAACAGCUCGCAGUCAAG”: the binding signal (log2 fold change) worked out at 0.00526.
With “GGUCACGUCUCAAUCAACUCAUCUCCCAGGGAAAGCCCUGGCAAACUCAACAGCUCGCAGUCAAG”, the binding signal (log2 fold change) is -0.242.
As for “GGUCACGUCUCAAUCAACUCAUAAGAGGGGGGGAAAACCCCUUUGCCCUCAUCGUCAACAGCUCGCAGUCAAG”, the binding signal (log2 fold change) was -0.386.
Next, “GGUCACGUCUCAAUCAACUCAAUCUCAGGAGUUUACUCCUGCUUUCUCAACAGCUCGCAGUCAAG”: 0.0323.
Next, “GGUCACGUCUCAAUCAACUCAUAAGAGGGGGGGAAAACCCCUUUACCCUCAAUUUCAACAGCUCGCAGUCAAG”: 0.0805; “GGUCACGUCUCAAUCAACUCCCAAGAGGGGGGGAAAACCCCUUUGCCCUCAUAAUCAACAGCUCGCAGUCAAG”: 0.212; “GGUCACGUCUCAAUCAACUCAACUCCCAGGGAAAACCCUGGCAAAUUCAACAGCUCGCAGUCAAG”: -0.0878.
Next, “GGUCACGUCUCAAUCAACUCUACUUCCAGGGAAAACCCUGGUAAUUUCAACAGCUCGCAGUCAAG”: -0.0271; “GGUCACGUCUCAAUCAACUCUAUUCCCAGGGAAAUCCCUGGCAAAUUCAACAGCUCGCAGUCAAG”: -0.0692; “GGUCACGUCUCAAUCAACUCAAUCCCCAGGGAAAGCCCUGGUUUUCUCAACAGCUCGCAGUCAAG”: 0.0482.
